In the supplement of paper PMC8728848:
The list shows a part of the results.

Assays:
Test in all cases: glycan array binding signal (z-score within array); higher = stronger binding
Settings in all cases: glycan notation: IUPAC condensed, linker removed
Gal(b1-4)Glc = molecular target: Gal(b1-4)Glc
Summary of the method: (§1)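 Negative Z-scores can be read as non-binding. The Z-score is calculated within each array and then averaged across arrays of one protein sequence at different concentrations or buffers and across linkers. Arrays, 3228 in all, were curated from the Consortium for Functional Glycomics database and kept only where the protein sequence was available.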

Gal(b1-4)Glc6S = molecular target: Gal(b1-4)Glc6S
Summary of the method: as §1

Gal(b1-4)GlcNAc = molecular target: Gal(b1-4)GlcNAc
Summary of the method: as §1

[1] = molecular target: Gal(b1-4)GlcNAc(a1-6)Gal(b1-4)GlcNAc
Summary of the method: as §1

Gal(b1-4)GlcNAc(b1-2)Man = molecular target: Gal(b1-4)GlcNAc(b1-2)Man
Summary of the method: as §1

[2] = molecular target: Gal(b1-4)GlcNAc(b1-2)Man(a1-3)Man(b1-4)GlcNAc(b1-4)GlcNAc
Summary of the method: as §1

[3] = molecular target: Gal(b1-4)GlcNAc(b1-2)Man(a1-3)[Gal(b1-4)GlcNAc(b1-2)Man(a1-6)]Man(b1-4)GlcNAc(b1-4)GlcNAc
Summary of the method: as §1

[4] = molecular target: Gal(b1-4)GlcNAc(b1-2)Man(a1-3)[Gal(b1-4)GlcNAc(b1-2)Man(a1-6)]Man(b1-4)GlcNAc(b1-4)[Fuc(a1-6)]GlcNAc
Summary of the method: as §1

[5] = molecular target: Gal(b1-4)GlcNAc(b1-2)Man(a1-3)[Gal(b1-4)GlcNAc(b1-2)Man(a1-6)][Gal(b1-4)GlcNAc(b1-4)]Man(b1-4)GlcNAc(b1-4)[Fuc(a1-6)]GlcNAc
Summary of the method: as §1

[6] = molecular target: Gal(b1-4)GlcNAc(b1-2)Man(a1-3)[Gal(b1-4)GlcNAc(b1-2)Man(a1-6)][GlcNAc(b1-4)]Man(b1-4)GlcNAc(b1-4)[Fuc(a1-6)]GlcNAc
Summary of the method: as §1

[7] = molecular target: Gal(b1-4)GlcNAc(b1-2)Man(a1-3)[GlcNAc(b1-2)Man(a1-6)]Man(b1-4)GlcNAc(b1-4)GlcNAc
Summary of the method: as §1

[8] = molecular target: Gal(b1-4)GlcNAc(b1-2)Man(a1-3)[GlcNAc(b1-4)][Gal(b1-4)GlcNAc(b1-2)Man(a1-6)]Man(b1-4)GlcNAc(b1-4)GlcNAc
Summary of the method: as §1

[9] = molecular target: Gal(b1-4)GlcNAc(b1-2)Man(a1-3)[Man(a1-6)]Man(b1-4)GlcNAc(b1-4)GlcNAc
Summary of the method: as §1

[10] = molecular target: Gal(b1-4)GlcNAc(b1-2)Man(a1-6)Man(b1-4)GlcNAc(b1-4)GlcNAc
Summary of the method: as §1

[11] = molecular target: Gal(b1-4)GlcNAc(b1-2)Man(a1-6)[GlcNAc(b1-2)Man(a1-3)]Man(b1-4)GlcNAc(b1-4)GlcNAc
Summary of the method: as §1

[12] = molecular target: Gal(b1-4)GlcNAc(b1-2)Man(a1-6)[Man(a1-3)]Man(b1-4)GlcNAc(b1-4)GlcNAc
Summary of the method: as §1

[13] = molecular target: Gal(b1-4)GlcNAc(b1-2)[Gal(b1-4)GlcNAc(b1-4)]Man(a1-3)[Gal(b1-4)GlcNAc(b1-2)Man(a1-6)]Man(b1-4)GlcNAc(b1-4)GlcNAc
Summary of the method: as §1

[14] = molecular target: Gal(b1-4)GlcNAc(b1-2)[Gal(b1-4)GlcNAc(b1-4)]Man(a1-3)[Gal(b1-4)GlcNAc(b1-2)[Gal(b1-4)GlcNAc(b1-6)]Man(a1-6)]Man(b1-4)GlcNAc(b1-4)GlcNAc
Summary of the method: as §1

[15] = molecular target: Gal(b1-4)GlcNAc(b1-2)[Gal(b1-4)GlcNAc(b1-4)]Man(a1-3)[GlcNAc(b1-4)][Gal(b1-4)GlcNAc(b1-2)Man(a1-6)]Man(b1-4)GlcNAc(b1-4)GlcNAc
Summary of the method: as §1

[16] = molecular target: Gal(b1-4)GlcNAc(b1-2)[Gal(b1-4)GlcNAc(b1-4)]Man(a1-3)[GlcNAc(b1-4)][Gal(b1-4)GlcNAc(b1-2)[Gal(b1-4)GlcNAc(b1-6)]Man(a1-6)]Man(b1-4)GlcNAc(b1-4)GlcNAc
Summary of the method: as §1

[17] = molecular target: Gal(b1-4)GlcNAc(b1-2)[Gal(b1-4)GlcNAc(b1-6)]Man(a1-6)[Gal(b1-4)GlcNAc(b1-2)Man(a1-3)]Man(b1-4)GlcNAc(b1-4)GlcNAc
Summary of the method: as §1

[18] = molecular target: Gal(b1-4)GlcNAc(b1-2)[Gal(b1-4)GlcNAc(b1-6)]Man(a1-6)[Gal(b1-4)GlcNAc(b1-2)Man(a1-3)]Man(b1-4)GlcNAc(b1-4)[Fuc(a1-6)]GlcNAc
Summary of the method: as §1

B1: Cohesin-hMARCO (Homo sapiens) (protein)
chain: LDDLDAVRIKVDTVNAKPGDTVRIPVRFSGIPSKGIANCDFVYSYDPNVLEIIEIEPGDIIVDPNPDKSFDTAVYPDRKIIVFLFAEDSGTGAYAITKDGVFATIVAKVKEGAPNGLSVIKFVEVGGFANNDLVEQKTQFFDGGANVGDTTEPATPTTPVTTPTTTDDLDAASVRIVGSSNRGRAEVYYSGTWGTICDDEWQNSDAIVFCRMLGYSKGRALYKVGAGTGQIWLDNVQCRGTESTLWSCTKNSWGHHDCSHEEDAGVECSVHHHHHH
glycan array binding signal (z-score) (Gal(b1-4)Glc): -0.326
glycan array binding signal (z-score) (Gal(b1-4)Glc6S): -0.057
glycan array binding signal (z-score) (Gal(b1-4)GlcNAc): -0.403
glycan array binding signal (z-score) [1]: 0.044
glycan array binding signal (z-score) (Gal(b1-4)GlcNAc(b1-2)Man): -0.48
glycan array binding signal (z-score) [2]: -0.089
glycan array binding signal (z-score) [3]: -0.401
glycan array binding signal (z-score) [4]: -0.471
glycan array binding signal (z-score) [5]: -0.013
glycan array binding signal (z-score) [6]: -0.601
glycan array binding signal (z-score) [7]: -0.02
glycan array binding signal (z-score) [8]: -0.286
glycan array binding signal (z-score) [9]: -0.326
glycan array binding signal (z-score) [10]: 0.049
glycan array binding signal (z-score) [11]: -0.317
glycan array binding signal (z-score) [12]: -0.434
glycan array binding signal (z-score) [13]: -0.58
glycan array binding signal (z-score) [14]: -0.565
glycan array binding signal (z-score) [15]: -0.409
glycan array binding signal (z-score) [16]: -0.515
glycan array binding signal (z-score) [17]: -0.167
glycan array binding signal (z-score) [18]: -0.355
